# According to PubChem BioAssay AID1745845 (National Center for Advancing Translational Sciences (NCATS), 2022):
# Where “and” joins values, the source holds several entries; their conditions need not be identical. Equal entries are not always repeated. The whole screen tested about 360,000 compounds, of which about 2,600 (0.72%) were called active. The inconclusive results got no clear call from the source; some entries with a clear call stand among them for comparison. Calls come from the whole dose curve; as a rule, active = well fitted inhibition curve with a large enough effect; inconclusive = small, poorly fitted or top-dose-only effect; inactive = no such curve, though single readings can be large or run the other way. A potency beside an inconclusive call is a rough fit, not a confirmed value.
# Test: Primary qHTS for Inhibitors of ATXN expression; note: nearly all actives have a fitted effect of over 55% in size
# Settings: HEK-293 ATXN2-luciferase reporter, luminescence, 24 h; activity change, negative = inhibition: at 57 µM (top of the series)
# Summary of the method: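 ATXN2-luciferase reporter cells (luciferase flanked by upstream and downstream ATXN2 gene portions) were treated 24 h at 37 °C with compounds at up to 57 uM. SteadyGlo luminescence gave expression; GF-AFC fluorescence gave viability.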
# % is set by controls: 0 for no effect and ±100 for the full control effect; potency is the fitted concentration of half-maximal effect; tags give direction and shape of the fitted curve.
Compound,"activity change, negative = inhibition",Potency
O=C(NCC(=O)N1CCN(c2ccccc2)CC1)c1ccc(Br)o1,inactive: 0.0132%,
Cc1nc(N2CCN(c3ccccn3)CC2)c2c(C)c(C(=O)N3CCN(c4ccc(F)cc4)CC3)sc2n1,,"inconclusive: 17.8 µM [inhibitor, partial curve, poor fit]"
CCOC(=O)c1c(C)cc(C)n2c1nc1ccccc12,inactive: -5.52%,
Cn1nc(-c2ccc(Cl)cc2)c2cc(C(=O)NCC3CCCO3)sc21 (centres undefined),,"inconclusive: 15.8 µM [inhibitor, partial curve, poor fit]"
COCCn1c(SCC(=O)c2c[nH]c3ccccc23)nnc1-c1ccncc1,inactive: 10.9%,
COc1cccc(-c2nnc(NC(=O)c3ccc(S(=O)(=O)N4CCOCC4)cc3)o2)c1,,"inconclusive: 31.6 µM [inhibitor, partial curve, poor fit]"
CCn1cc(CNC(=S)Nc2cccc3ccccc23)cn1,,"inconclusive: 2.67 µM [inhibitor, partial curve, poor fit]"
CCC(=O)N1CCc2cc(S(=O)(=O)CCC(=O)N3CCN(c4cccc(C)c4)C(C)C3)ccc21 (centres undefined),,"inconclusive: 39.8 µM [inhibitor, single point]"
Cn1nc(CC(=O)NC2CCCCCCCCCCC2)c2ccccc2c1=O,inactive: -15.6%,
CC1CCC(NC(=O)c2cccc(S(=O)(=O)NCc3ccccc3)c2)CC1 (centres undefined),inactive: 0.0091%,
CCOc1ccc(-c2cc3c(=O)n(Cc4nc(-c5cccc(OC)c5OC)oc4C)ccn3n2)cc1Cl,inactive: 0.969%,
CCc1cnc(Nc2nc(C(N)Cc3ccc(Cl)cc3)cs2)nc1 (centres undefined),,"inconclusive: 39.8 µM [inhibitor, single point]"
CCCCCCNC1=NCCS1,,"inconclusive: 0.947 µM [inhibitor, partial curve, poor fit]"
COc1ccc(-c2cc(C(=O)N3CCN(c4ccccc4OC)CC3)c3cc(C(C)C)ccc3n2)cc1,,"inconclusive: 39.8 µM [inhibitor, single point]"
Cc1ccc(Cl)cc1N1CCN(C(c2ccc(F)cc2)c2nnc(-c3ccccc3)o2)CC1 (centres undefined),inactive: 11.1%,
N#CC(C#N)=Cc1ccc(OCC(=O)N2CCOCC2)cc1,inactive: -31.1%,
COc1ccc(NC(=O)COC(=O)c2ccc3c(c2)OCO3)c(OC)c1,,"inconclusive: 22.4 µM [inhibitor, partial curve, poor fit]"
Cc1noc(NS(=O)(=O)c2ccc(NC(=O)c3ccc(N4C(=O)c5ccccc5C4=O)cc3)cc2)c1C,inconclusive: -41.6% [inhibitor],
Cc1cc(C(=O)COC(=O)c2cccnc2Cl)c(C)n1CC1CCCO1 (centres undefined),,"inconclusive: 29.9 µM [inhibitor, partial curve, poor fit]"
CCOc1ccc(-c2cc(CCCC(=O)Nc3cccc(OC)c3)no2)cc1,,active: 8.91 µM
COC(=O)c1ccccc1NC1=C/C(=N\S(=O)(=O)c2ccc(C(=O)O)cc2)c2ccccc2C1=O,,"inconclusive: 28.2 µM [inhibitor, single point]"
N/C(=N\OC(=O)c1cc(Br)ccc1Cl)c1ccccn1,inactive: 0.144%,
COC(=O)c1cc(NC2(c3ccccc3)C(=O)c3ccccc3C2=O)cc(C(=O)OC)c1,inactive: 15.6%,

Compound,"activity change, negative = inhibition",Potency
O=C(c1cccs1)c1ccc(-c2cccs2)s1,inactive: 69.1%,
Cc1ccc(C(=O)NNC(=O)CSc2nnc3c(n2)[nH]c2ccc(C)cc23)cc1,,"inconclusive: 17.8 µM [inhibitor, partial curve]"
O=C(Cn1sc2ccccc2c1=O)Nc1ccc(F)cc1,,"inconclusive: 35.5 µM [inhibitor, partial curve, poor fit]"
C=CCN1[C@@H](Cc2ccccc2)COCCS1(=O)=O,inactive: 2.38%,
c1cncc(-c2nn3c(Cn4cnc5ccccc54)nnc3s2)c1,,"inconclusive: 22.4 µM [inhibitor, partial curve, poor fit]"
CN(Cc1ccccc1)C(=O)c1[nH]cnc1C(=O)Nc1ccc(Cl)cc1,,"inconclusive: 39.8 µM [inhibitor, single point]"
O=C(C[n+]1ccccc1)Nc1cc(C(F)(F)F)ccc1Cl,inactive: -8.83%,
COc1ccccc1N1C(=O)c2cccc3c(Cl)ccc(c23)C1=O,inactive: -47%,
COc1ccc(Cn2c(CCC(=O)Nc3cc(C)cc(C)c3)nc3cccnc32)cc1,,"inconclusive: 39.8 µM [inhibitor, single point]"
CCCCN(C(=O)CSc1nc2ccccc2n1CC)C1CCS(=O)(=O)C1 (centres undefined),inactive: 0.0479%,
COCOCCn1cc(CN2CCS(=O)(=O)N(Cc3ccc(-c4ccc(Cl)cc4)cc3)C(C)C2=O)nn1 (centres undefined),,"inconclusive: 20 µM [inhibitor, partial curve, poor fit]"
N#Cc1ccc(-c2ccc(F)cc2)nc1Oc1ccc(F)cc1,,"inconclusive: 39.8 µM [inhibitor, single point]"
COc1ccc(NC(=O)c2ccco2)cc1NC(=O)c1cccc(C)c1OC,inactive: -19.2%,
O=C(NC(CSC(=O)c1ccccc1)C(=O)O)OCc1ccccc1 (centres undefined),inactive: -23.1%,
CC(C)[C@H]1CN=C2N(C[C@H](C)NC(=O)CCC3CCCCC3)[C@H](Cc3ccc(O)cc3)CN21,inactive: -7.16%,
COc1cccc(NC(=O)c2ccc3c(c2)OCCO3)c1,,"inconclusive: 12.6 µM [inhibitor, single point]"
CCOC(=O)c1c(NC(=O)C[n+]2ccc(Cc3ccccc3)cc2)sc(C)c1C,,"inconclusive: 14.1 µM [inhibitor, partial curve, poor fit]"
O=C1c2ccccc2-c2onc3ccc(N4CCCC4)c1c23,,"inconclusive: 42.3 µM [inhibitor, partial curve, poor fit]"
Cc1ccc(SCC(=O)N2CCN(S(=O)(=O)c3cccs3)CC2)cc1,inactive: 3.87%,
Cc1ccc(Cc2c(C3CCCCC3)nc3ccc(Br)cn23)cc1,inactive: -25.8%,
OCCOCCn1c(CCNc2nc(-c3ccc(F)cc3)cs2)nc2cc(C(F)(F)F)ccc21,,"inconclusive: 39.8 µM [inhibitor, partial curve, poor fit]"
CCN1CCN(Cc2ccc(NC(=O)c3cc(NC(=O)c4cc5cccc(OC)c5o4)cc(OC)c3)cc2C(F)(F)F)CC1,,"inconclusive: 31.6 µM [inhibitor, single point] and active: 8.91 µM"
CC(=O)N1CCCc2cc(S(=O)(=O)N3CCCC(C(=O)Nc4ccc(F)cc4F)C3)ccc21 (centres undefined),inactive: -18.7%,

Compound,"activity change, negative = inhibition",Potency
COc1ccc(CCNC(=O)c2ccc3nc(-c4ccco4)c(-c4ccco4)nc3c2)cc1OC,,"inconclusive: 35.5 µM [inhibitor, single point]"
COc1ccc(-c2cc(NC=O)c3ncc(-c4cccc(C(=O)NCCN(C)C)c4)n3c2)cc1,,"inconclusive: 31.6 µM [inhibitor, partial curve]"
CCc1ccc(NC(=O)C2CCN(S(=O)(=O)c3ccc4c(c3)CC(C)N4C(C)=O)CC2)cc1 (centres undefined),,active: 12.6 µM
C=CCSc1nsc(NC(=O)Nc2ccc(F)cc2)n1,,"inconclusive: 25.1 µM [inhibitor, partial curve, poor fit]"
O=C(C[N+]1(CC#Cc2ccccc2)CCOCC1)c1ccc(Cl)cc1,,"inconclusive: 4.23 µM [inhibitor, partial curve, poor fit]"
CC(C)C[C@H](NC(=O)c1nc[nH]c1C(=O)NC1CCN(C(=O)OC(C)(C)C)CC1)C(=O)OCc1ccccc1,,"inconclusive: 35.5 µM [inhibitor, single point]"
COc1ccc(OC)c(Nc2nc(-c3ccc(O)c(O)c3)cs2)c1,,"inconclusive: 22.4 µM [inhibitor, partial curve, poor fit]"
CCCCNC(=O)C(C)N(CCN(C)C)C(=O)CCCN1C(=O)NC(c2ccc([N+](=O)[O-])cc2)C(C(=O)OCc2ccccc2)=C1C (centres undefined),,"inconclusive: 35.5 µM [inhibitor, single point]"
Fc1cccc(F)c1/C=N/NC(=S)Nc1cccnc1,inactive: -26%,
FC(F)(F)c1nnc(Nc2ccc(Cl)cc2)s1,,"inconclusive: 39.8 µM [inhibitor, partial curve, poor fit]"
COc1ccc2nc(SCC(=O)N(C)C3CCCCC3)c(C#N)cc2c1,inactive: -5.38%,
CC(=O)OCC12COC3c4ccccc4OC(C)(CC1C)C3C2C (centres undefined),inconclusive: -40.2% [inhibitor],
CCC(C)NC(=O)Cn1c(=O)n(-c2cc(OC)cc(OC)c2)c(=O)c2ccccc21 (centres undefined),inactive: 12.3%,
Cc1ccc(C(=O)NNC(=O)CCCN2C(=O)/C(=C/c3ccccc3Cl)SC2=S)cc1,,"inconclusive: 31.6 µM [inhibitor, single point]"
CC(C)(C)c1cc(C(c2cccnc2)N2CCN(CCO)CC2)cc(C(C)(C)C)c1O (centres undefined),,"inconclusive: 28.2 µM [inhibitor, single point]"
COc1ccc(/C=C/C(=O)NC(=S)Nc2ccccc2C(=O)NC2CCCCC2)cc1,,"inconclusive: 35.5 µM [inhibitor, partial curve, poor fit]"
COc1ccc(-c2nn(-c3ccccc3)cc2C(=O)Nc2nccs2)cc1,inactive: -3.51%,
O=C(NC1(Cc2ccccc2)CCN(CCCc2ccccc2)C1=O)c1ccccc1 (centres undefined),,"inconclusive: 6.31 µM [inhibitor, single point]"
Cc1cccc(C)c1-n1nnnc1C(C1CC1)N1CCN(C/C=C/c2ccccc2)CC1 (centres undefined),,"inconclusive: 25.1 µM [inhibitor, partial curve, poor fit]"
CN(C)CCn1c(=S)[nH]c2ccccc2c1=O,inactive: 3.68%,
Cn1c(CCc2nc3ccccc3[nH]2)nnc1SCC#N,inconclusive: -55.7% [inhibitor],
CCc1cc(CC)c(/C=N/NC(N)=O)c(CC)c1,inactive: -28.7%,
COc1ccc(OCc2cc(-c3ccc(Cl)cc3)no2)cc1,inactive: 10.4%,
